From paper PMC4336329 (PLoS ONE, 2015)
The campaign covered roughly 310,000 compounds. About 14,000 (4.5%) showed an effect of 50% or more. Effects have a minus sign here. This is one part of the list.

These molecules were tested against human ether-à-go-go-related gene (hERG) potassium channel (human, UniProt Q12809) (assay: primary screen, population patch clamp on CHO cells stably expressing hERG).
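Note: peak tail current of the secondary pulse compared with the same well before compound.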

human ether-à-go-go-related gene (hERG) potassium channel, sequence (Q12809 whole entry, looked up): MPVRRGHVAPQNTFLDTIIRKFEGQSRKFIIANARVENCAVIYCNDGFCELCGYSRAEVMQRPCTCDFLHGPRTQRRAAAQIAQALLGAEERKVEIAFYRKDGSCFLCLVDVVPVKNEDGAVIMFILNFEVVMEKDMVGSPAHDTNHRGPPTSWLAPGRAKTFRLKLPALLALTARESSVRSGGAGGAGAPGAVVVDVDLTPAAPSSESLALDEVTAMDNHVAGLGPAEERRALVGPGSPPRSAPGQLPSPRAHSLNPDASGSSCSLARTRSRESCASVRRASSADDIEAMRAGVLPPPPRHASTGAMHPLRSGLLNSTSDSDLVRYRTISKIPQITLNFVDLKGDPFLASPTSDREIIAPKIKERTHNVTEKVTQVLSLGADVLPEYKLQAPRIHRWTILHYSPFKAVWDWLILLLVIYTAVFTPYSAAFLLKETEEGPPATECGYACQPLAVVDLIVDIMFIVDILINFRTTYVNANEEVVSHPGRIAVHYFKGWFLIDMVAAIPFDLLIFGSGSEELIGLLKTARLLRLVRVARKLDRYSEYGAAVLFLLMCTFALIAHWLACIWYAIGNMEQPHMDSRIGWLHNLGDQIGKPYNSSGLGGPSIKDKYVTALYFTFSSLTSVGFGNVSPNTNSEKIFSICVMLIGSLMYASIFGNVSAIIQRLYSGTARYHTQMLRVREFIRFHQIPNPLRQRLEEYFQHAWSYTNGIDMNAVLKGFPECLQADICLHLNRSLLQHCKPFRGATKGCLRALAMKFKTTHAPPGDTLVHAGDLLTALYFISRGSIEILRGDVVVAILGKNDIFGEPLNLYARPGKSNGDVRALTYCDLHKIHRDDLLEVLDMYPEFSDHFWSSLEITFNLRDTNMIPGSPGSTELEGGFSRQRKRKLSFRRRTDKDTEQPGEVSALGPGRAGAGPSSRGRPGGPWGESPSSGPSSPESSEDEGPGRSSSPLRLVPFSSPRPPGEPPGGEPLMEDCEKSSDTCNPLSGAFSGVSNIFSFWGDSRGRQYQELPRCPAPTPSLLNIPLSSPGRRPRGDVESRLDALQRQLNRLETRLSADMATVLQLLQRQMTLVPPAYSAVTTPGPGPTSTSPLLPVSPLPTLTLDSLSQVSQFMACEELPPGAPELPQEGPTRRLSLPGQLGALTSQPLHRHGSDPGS

Structure (SMILES)	hERG current change (%, negative = inhibition) at 10uM [%]
Cc1cnc(NS(=O)(=O)c2ccccc2)c(Br)c1	10.1
C=CCN(CC=C)C(=S)NC(=O)/C=C/c1ccc(C)cc1	8.14
CCOC(=O)CC(=O)CSc1ccc2nnc(-c3cccc(F)c3)n2n1	-72.2
CN(C)CCN(C(=O)c1cc(Cl)sc1Cl)c1nc2ccc(F)cc2s1.Cl	-67.3
CC(=O)c1ccc(S(=O)(=O)Nc2ccc(C(=O)NCCCn3ccnc3)cc2)cc1	-19.3
CC(NC(=O)CSc1nnc(-c2cccnc2)n1N)c1ccccc1 (stereo not shown)	19.1
COc1ccc(-c2c(C)nn3c(Cl)c(C)c(C)nc23)cc1	11.4
COc1ccc(NC(=O)C(NC(C)=O)C(=O)Nc2ccc(F)cc2)cc1 (stereo not shown)	10
COc1cccc(NC(=O)CSc2ccc3nnc(-c4cccnc4)n3n2)c1	-37.5
Cc1cccc(Sc2ccc([N+](=O)[O-])cn2)c1	-0.303
Cc1ccc(-n2c(N)c(Br)c(=O)[nH]c2=O)cc1C	11.8
Cc1ccc(S(=O)(=O)N2CCCCC2CCNC(=O)C(=O)NCC2CCCO2)cc1 (stereo not shown)	-23.6
O=C(Nc1cccc(F)c1)Nc1cnccn1	10.9
O=C(CCc1ccccc1)NCC(=O)N/N=C/c1ccc2c(c1)OCO2	-3.39
CCOC(=O)C1(Cc2ccc(Cl)cc2)CCN(C(=O)c2cc(C)nc(C)n2)CC1	-38.1
O=C(COc1ccc(Cl)cc1Br)Nc1ccccc1N1CCCC1	9.41
COc1ccc(-c2c(C(=O)O)c(C(=O)O)c3n2CCC3)cc1	24.2
CCc1ccccc1Nc1nc(N)nc(CSCC(=O)c2cc(C)n(C)c2C)n1	2.36
Cc1cc(N2CC(C(=O)NCc3cccnc3)CC2=O)ccc1C(C)C (stereo not shown)	-21.5
CCCCSc1nc2c(c(C(F)(F)F)c1C#N)CCC2	6.11
CCC(CC)C(=O)Nc1nnc(SCC(=O)N2CCN(c3ccccc3OC)CC2)s1	2.87
CCc1ccccc1NC(=S)N=Nc1c(O)n(C)c2ccc(S(=O)(=O)N3CCOCC3)cc12	1.6

Structure (SMILES)	hERG current change (%, negative = inhibition) at 10uM [%]
COCCCn1c(SCC(=O)NCc2ccccc2)nc2ccccc2c1=O	-48.6
COc1ccc(NC(=O)c2cccnc2SC)cc1OC	19.5
CC(=O)c1ccc(N2CCN(S(=O)(=O)c3ccc4c(c3)NC(=O)CO4)CC2)cc1	18.8
CCn1c(SC(C)C)nnc1-c1cc(-c2ccccc2)sc1N	-7.04
COc1ccc(-c2[nH]ncc2CN(CC2CCC(=O)N2)C(C)C)cc1F (stereo not shown)	1.2
CC(=O)c1cccc(N(CC(=O)NC2CCCC2)C(=O)CNC(=O)c2cccs2)c1	6.44
CCNC(=O)C(=O)c1c(-c2ccccc2)[nH]c2ccccc12	15.4
CCC1C(=O)N=C(SCC(=O)Nc2nc3ccccc3s2)NC1=O (stereo not shown)	17.5
Cc1cccc(-c2noc(Cc3ccc(Cl)cc3)n2)c1	18.5
CN(C)S(=O)(=O)c1cccc(C(=O)NCC(=O)NC2CCN(Cc3ccccc3)CC2)c1	3.32
COc1cccc(/C=C/c2ccc3ccccc3n2)c1OC(C)=O	26
CCOC(=O)N1CCC(NC(=O)C2CCCN(Cc3nc(-c4ccc(CC)cc4)oc3C)C2)CC1 (stereo not shown)	-71.5
Cc1cc(NC(=O)CSc2nc(C(C)C)nc3c2c(=O)n(C)c(=O)n3C)no1	7.37
O=C(Nc1cnc2ccccc2c1)N1CCCCC1	2.63
CCCN1CCN(C(=O)c2c(Cl)cnn2C)CC1	5.14
O=C(O)c1ccc(NC(=O)c2ccc(COc3ccccc3)o2)cc1	14.3
CCCCCC(=O)NC(=S)NNC(=O)CC	12.9
Cc1ccc2c(c1)[nH]c1c(=O)n(CCCN3CCOCC3)cnc12	-34
CCCCC1=CC2=CC(=O)C(C)(OC(=O)CC)C(=O)C2=CN1Cc1ccc(OC)cc1 (stereo not shown)	-55.1
COc1cc(/C=C2/SC(=S)N(C)C2=O)ccc1OC(=O)c1ccco1	-4.25
CC1(C)SC(=Nc2ccccc2)N(S(=O)(=O)c2ccccc2)C1=O	-7.06
Cc1ccc(S(=O)(=O)Nc2ccc3c(c2)OCCO3)c(C)c1NS(C)(=O)=O	-5.82

Structure (SMILES)	hERG current change (%, negative = inhibition) at 10uM [%]
COc1cc2c(cc1OC)C(c1ccc(N(C)C)cc1)NCC2.Cl (stereo not shown)	5.99
CNC(=O)c1[nH]cnc1C(=O)N[C@@H](C)C(=O)OCc1ccccc1	-5.67
Cc1cc(NC(=O)CN2CCN(c3ccccc3O)CC2)no1	-7.15
COc1cccc(C(=O)N/N=C(/CCC(=O)O)c2ccccc2)c1	5.17
Cc1ccc(C)n1CCN1CCN(C(=O)CSc2nc3ccccc3nc2N2CCOCC2)CC1	-54.5
COc1ccc(NS(=O)(=O)c2cccc(C(=O)NC3CCC(O)CC3)c2)cc1 (stereo not shown)	-0.973
Cc1ccc(NC(=O)CN2C(=O)S/C(=C/c3ccc(-c4cc(C(=O)O)ccc4C)o3)C2=O)cc1C	-1.07
O=C(NN1C(=O)C2C3c4ccccc4C(c4ccccc43)[C@@H]2C1=O)c1ccccc1 (stereo partly shown)	6.97
COc1cc(NC(=O)Cn2cnc(S(=O)(=O)N3CCc4ccccc43)c2)cc(OC)c1OC	13.4
Cc1ccc(NC(=S)N(CCN(C)C)C(C)c2ccco2)c(C)c1 (stereo not shown)	-34.1
O=C(/C=C1\NCC2c3ccccc3CCN2C1=O)c1ccccc1 (stereo not shown)	-12
N#Cc1ccc(C(=O)OCC(=O)Nc2cccc(S(=O)(=O)N3CCCCC3)c2)cc1	-7.3
Cc1ccc(CN=C(N)Nc2nc(C)cc(C)n2)cc1.Cl	-76.1
O=C(CSCc1ccc([N+](=O)[O-])cc1)N/N=C/c1ccncc1	-49.1
CN(C)/C=N/c1ncc(C(=O)c2ccccc2)s1	1.48
Cc1cccc(C(=O)N(Cc2ccc(C)o2)C2CCS(=O)(=O)C2)c1 (stereo not shown)	-48.4
CC(C)C(NC(=O)c1ccccc1F)C(=O)Nc1nccs1 (stereo not shown)	46.7
O=C(NCCN1CCOCC1)c1cc([N+](=O)[O-])ccc1Cl	6.5
CCOC(=O)C1(C)NC(c2cccs2)C2C(=O)N(c3ccc(C)cc3)C(=O)C21 (stereo not shown)	6.5
CN1/C(=C/c2cccc[n+]2CCO)Sc2ccccc21.[I-]	12.4
CCCCNS(=O)(=O)c1ccc(NC(=O)C2CCCO2)cc1 (stereo not shown)	-8.88
COc1cc(NC(=S)Nc2cccc(Cl)c2Cl)c(OC)cc1Cl	3.14

Structure (SMILES)	hERG current change (%, negative = inhibition) at 10uM [%]
S=c1[nH]ncn1/N=C/c1cccs1	19.3
CCN(Cc1ccccc1)S(=O)(=O)c1ccc(C(=O)N(CCCN(C)C)c2nc3cc4c(cc3s2)OCCO4)cc1.Cl	-27.5
Cc1ccc(C(O)P(=O)(Oc2ccccc2)Oc2ccccc2)cc1 (stereo not shown)	5.41
CCc1nnc(NS(=O)(=O)c2ccc(NC(=S)NC(=O)c3ccccc3)cc2)s1	15.9
CN1CCN(C(=O)CN2C(=O)COc3ccc(S(=O)(=O)N4CCOCC4)cc32)CC1	11.1
CCCCn1c(N)c(N(CC(C)C)C(=O)CN2C(=O)c3ccccc3C2=O)c(=O)[nH]c1=O	-7.79
Clc1ncc(CN2CCN(c3ccccc3)CC2)s1	-3.49
Cc1ccc2[nH]c(=O)c(COC(=O)C3CCCCC3)cc2c1	16.4
COc1ccc(NC(=O)C2CC(=O)N(Cc3ccc(C)cc3)C2)cc1S(=O)(=O)N1CCCCC1 (stereo not shown)	-5.3
Cc1ccsc1/C=N/n1c(-c2ccccc2)n[nH]c1=S	-9.65
CCCCn1c2ccccc2c2nnc(SCC(=O)NC3=NN=C(c4ccccc4)CS3)nc21	6.79
Cc1cc(OCC(=O)N(C)c2ccccc2)cc2c1C(=O)CC(C)(C)O2	-6.2
O=C(NC1CC2CCC(C1)N2Cc1ccccc1)c1cccc(F)c1 (stereo not shown)	-60.5
Cc1ccc(CSCCNC(=O)c2ccccc2)cc1	-13.6
O=C(Nc1ccc2c(c1)OCO2)NC1(C(F)(F)F)Oc2ccccc2O1	-8.15
O=C(NC1CCN(S(=O)(=O)c2cccc(F)c2)CC1)c1ccc(F)cc1	14.6
O=C(Cn1cncn1)NCCCc1ccccc1	10.1
CCOc1ccccc1Nc1ccc(C(=O)O)cc1[N+](=O)[O-]	7.69
O=C(CN(C(=O)CCC(=O)Nc1nccs1)c1ccc(F)cc1)NCc1ccco1	3.88
CCOC(=O)Cc1csc(NC(=O)Cc2ccc(Br)cc2)n1	-15.2
S=c1[nH]nc(-c2ccc(Cl)cc2)n1-c1ccc2c(c1)OCCO2	19.2
COc1ccccc1/C=C1\SC(=S)N(CC(=O)NC2CCS(=O)(=O)C2)C1=O (stereo not shown)	-6.12
